Structures are written as SMILES. About 540 (0.36%) of roughly 150,000 compounds showed an effect of 50% or more. Some of the results follow.

The test relates to Plasmodium falciparum. The experiment in a line: Primary screen in NF54 nanoGlo assay, in single point, at 2uM, 72h; a lower Z score goes with more inhibition. The format is functional, Erythrocyte. As to conditions: timepoint 72 hour.
Take `CCC(=O)N(CCN1CCOCC1)Cc1csc(COc2ccccc2C)n1`: the % Inhibition – broadly, the drop in the measured response relative to a control, in per cent – was -5% and the Z score is 0.49.

For the compound `CN(C)c1ncc(CNCc2cccnc2Oc2ccccc2)s1`, the “% Inhibition” value is reported as -8% and the Z score was determined as 1.15.

In the case of `Cc1nc(-c2cc(S(=O)(=O)N3CCC(C(=O)N4CCCCC4)CC3)c(C)s2)no1`, the “% Inhibition” value is given as 2% and the Z score is -0.29.

For the compound `Cc1ccoc1CNC(=O)N1CC[C@H](O)[C@@H](C2CCCC2)C1`, the “% Inhibition” value is reported as 2% and the Z score is given as -0.25.

In the case of `O=C([C@@H]1CC=CCC1)N1CC(COc2ccccc2)C1`, the “% Inhibition” value is listed as -4% and the Z score is 0.62.

For the compound `CCOCn1nc(C)c(CC(C)C(=O)NC(CC)CC#N)c1C` (stereo unspecified), the “% Inhibition” value is given as -7% and the Z score is recorded as 1.26.

As for `COc1ccc(Cl)cc1[C@H](C)NCc1nncn1C1CC1`, the “% Inhibition” value is reported as -13% and the Z score came to 2.01.

As to `O=C(O)c1cnn2cc(CN3CCN(c4ccccc4F)CC3)cnc12`, the “% Inhibition” value is -13% and the Z score is 1.6.

In the case of `O=C(COc1ccc(F)cc1)N1CC(OCc2ccc(F)cc2Cl)C1`, the “% Inhibition” value is reported as -12% and the Z score was 1.07.

As to `COc1ccc(C(=O)N(CC(=O)N(Cc2ccco2)C[C@H]2CCCO2)C(C)(C)C)cc1`, the “% Inhibition” value is listed as -7% and the Z score was determined as 1.15.

Consider `CCCc1nc(NCCc2cc(O)nc(C)n2)c2cnn(C)c2n1`, for which the “% Inhibition” value was -12% and the Z score was determined as 1.3.

As for `Cc1ccc(-c2noc(-c3c(N)sc4c3CC[C@H](C)C4)n2)cc1`, the “% Inhibition” value was -3% and the Z score worked out at 0.38.

For the compound `O=C(Nc1nc2c(s1)Cc1ccccc1-2)c1cc2ccccc2o1`, the “% Inhibition” value is -12% and the Z score came to 2.33.

Consider `Cc1oc(-c2ccccc2)nc1Cn1c(C(=O)c2ccc(Cl)cc2)nc2ccccc21`, for which the “% Inhibition” value is recorded as -5% and the Z score turned out to be 0.65.

On to `Cc1ccc2c(CC(=O)N3CCO[C@H]4COCC[C@H]43)c[nH]c2c1`, for which the “% Inhibition” value was 6% and the Z score is given as -1.12.

As for `O=C1NCCOCCN(C(=O)Cc2cccc(F)c2)[C@H]2CCC[C@@H]12`, the “% Inhibition” value was -13% and the Z score was 1.85.

In the case of `COc1ccc(F)cc1C(=O)CN1C(=O)NC2(CCCCCCC2)C1=O`, the “% Inhibition” value was -26% and the Z score turned out to be 3.54.

Take `CC1CC(c2nc(C3(C)CCCCO3)no2)CCO1` (stereo unspecified): the “% Inhibition” value stood at 5% and the Z score was -1.03.

As for `Clc1ccc(Cn2ccc(-c3ccc4c(c3)OCO4)n2)cc1Cl`, the “% Inhibition” value was -4% and the Z score is 0.51.

`CCc1ccc(CN2CCC[C@H](CNC(=O)c3ccncn3)C2)nc1`: the “% Inhibition” value is -10% and the Z score stood at 0.95.

Consider `CC1COCC(C)N1CC(O)COCC1=CCC2CC1C2(C)C` (stereo unspecified), for which the “% Inhibition” value is reported as -3% and the Z score turned out to be 0.33.

In the case of `O=C1C[C@@H](c2ccccc2)N(CC2CCCCC2)CCCCCCN1`, the “% Inhibition” value was -6% and the Z score turned out to be 0.87.

Take `CC(C)(C)c1ccnc(N[C@H]2CO[C@H]3[C@@H]2OC[C@@H]3NC(=O)COc2ccccc2)n1`: the “% Inhibition” value stood at 16% and the Z score was -1.87.

Regarding `O=C1CN(c2ccc(Br)cc2)S(=O)(=O)c2ccccc2N1`, the “% Inhibition” value was -7% and the Z score is reported as 0.83.

As for `O=C(C1CCN(S(=O)(=O)Cc2cccc(Cl)c2)CC1)N1CCN(c2ccccc2)CC1`, the “% Inhibition” value was -2% and the Z score is 0.37.

Regarding `CN1CCN(C(=O)c2cnc(-c3cc(Cl)cc(Cl)c3)nc2O)CC1`, the “% Inhibition” value worked out at 12% and the Z score is reported as -1.52.

With `Cc1conc1CN1CCN(c2cccc3[nH]cnc23)CC1`, the “% Inhibition” value is on record as -19% and the Z score turned out to be 2.19.

For `CC(C)(CNC1CCN(c2ccc(-c3cscn3)cc2)CC1)N1CCCC1`, the “% Inhibition” value is -9% and the Z score was found to be 1.22.

In the case of `C=C(C)C(C)(C)C(=O)NC1CCC(F)C1` (stereo unspecified), the “% Inhibition” value is -14% and the Z score is 1.9.

For `Cc1cc(N[C@H]2C[C@@H](c3nnc(CN(C)C)n3C)C2)nc(C)c1C#N`, the “% Inhibition” value was -13% and the Z score was found to be 2.24.

`CCCNC(=O)c1c(NC(=O)c2ccc3c(c2)c(C)c(C)n3Cc2ccccc2)cnn1C`: the “% Inhibition” value was found to be 36% and the Z score was -5.26.

On to `CCc1nc(N2CCC[C@H](CCC(=O)NCc3ccccc3Cl)C2)no1`, for which the “% Inhibition” value is reported as -3% and the Z score is reported as 0.27.

On to `Cn1ccc(CCC(=O)N(C)[C@H]2CC[C@H](O)CC2)n1`, for which the “% Inhibition” value was -8% and the Z score worked out at 1.14.

In the case of `Cc1cnccc1CN(C)Cc1cc2n(n1)CCNC2`, the “% Inhibition” value is reported as 30% and the Z score is -3.82.

As to `Cc1noc(C)c1[C@H](C)NC(=O)CN1CCOc2ccc(Cl)cc21`, the “% Inhibition” value is 1% and the Z score is on record as -0.11.

For the compound `Cn1cncc1C(=O)N1CCC(Cc2nc(C(C)(C)C)cs2)CC1`, the “% Inhibition” value is given as -13% and the Z score turned out to be 1.83.

On to `N#Cc1cc(F)c(NCCOC[C@H]2CCCO2)c(F)c1`, for which the “% Inhibition” value was -2% and the Z score is reported as 0.29.

Take `O=C(CCn1cnnc1)N(CCO)Cc1cccs1`: the “% Inhibition” value is on record as -8% and the Z score came to 0.94.

As to `CC(=O)N(C[C@H]1CCCN1C(=O)c1cncc(OC(C)C)c1)C1CC1`, the “% Inhibition” value is listed as 1% and the Z score was -0.1.

In the case of `C/C(=C\c1ccccc1)CN1CCN(c2ncccn2)CC1`, the “% Inhibition” value worked out at 9% and the Z score is recorded as -1.35.

On to `CCOC(=O)c1nccc(NC(CO)C(O)C2CCCCC2)n1` (stereo unspecified), for which the “% Inhibition” value is listed as -5% and the Z score turned out to be 0.94.

`COc1ccc(C(=O)N2CCC3(CC2)OC[C@@H](C(=O)NCc2ccc4c(c2)OCO4)N3C(=O)c2ccccc2)cc1`: the “% Inhibition” value is given as -11% and the Z score was found to be 1.22.

In the case of `COC(=O)[C@@]1(Cc2ccccc2)N[C@@H](c2cccnc2)[C@H]2C(=O)N(C)C(=O)[C@H]21`, the “% Inhibition” value is reported as -4% and the Z score is on record as 0.78.
